Experimental data from the supplement of paper PMC4604168 (melanoma cell lines).
The list shows a part of the results. Most values come without repeats; read them as rough.

tested on: WM115; test: cell count relative to DMSO control; melanoma cells; higher = more viable cells; settings: library dose: low library concentration; 72 h
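Also: cell number obtained by counting DAPI-stained nuclei in high-throughput microscope images with image analysis software, screen run in 1,536-well plates.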

Row | SMILES | cell count [%]
1 | C=CCNC1=C2C[C@@H](C)C[C@H](OC)[C@H](O)[C@@H](C)/C=C(\C)[C@H](OC(N)=O)[C@@H](OC)/C=C\C=C(/C)C(=O)NC(=CC1=O)C2=O [Tanespimycin] + CC(C)CCN1c2nc(Nc3cc(F)c(O)c(F)c3)ncc2N(C)C(=O)C1C [BID1870] (first compound 0.002 µM, partner dose 0.2 µM) | 97.7
2 | CS(=O)(=O)CCNCc1ccc(-c2ccc3ncnc(Nc4ccc(OCc5cccc(F)c5)c(Cl)c4)c3c2)o1 [lapatinib] + Nc1nc(F)nc2c1ncn2[C@@H]1O[C@H](CO)[C@@H](O)[C@@H]1O [fludarabine] (first compound 0.8 µM, partner dose 0.2 µM) | 97.3
3 | CNC(=O)c1cc(Oc2ccc(NC(=O)Nc3ccc(Cl)c(C(F)(F)F)c3)cc2)ccn1 [sorafenib] + C#Cc1cccc(Nc2ncnc3cc(OCCOC)c(OCCOC)cc23)c1 [erlotinib] (first compound 0.4 µM, partner dose 0.8 µM) | 91.1
4 | CN1CCN(c2ccc3nc(-c4c(N)c5c(F)cccc5[nH]c4=O)[nH]c3c2)CC1 [Dovitinib] + O=C(O)c1ccc2c(c1)nc(Nc1cccc(Cl)c1)c1ccncc12 [CX4945] (first compound 0.1 µM, partner dose 0.4 µM) | 99.9
5 | CN1CCN(c2ccc3nc(-c4c(N)c5c(F)cccc5[nH]c4=O)[nH]c3c2)CC1 [Dovitinib] + O=C(Nc1ccccc1)c1cc([N+](=O)[O-])ccc1Cl [GW9662] (first compound 0.1 µM, partner dose 2 µM) | 120
6 | C[C@@H](Oc1cc(-c2cnn(C3CCNCC3)c2)cnc1N)c1c(Cl)ccc(F)c1Cl [Crizotinib] + NCC(=O)Nc1ccc(-n2nc(C(F)(F)F)cc2-c2ccc3c(ccc4ccccc43)c2)cc1 [OSU03012] (first compound 0.2 µM, partner dose 1 µM) | 75.4
7 | CN1CCN(c2ccc3nc(-c4c(N)c5c(F)cccc5[nH]c4=O)[nH]c3c2)CC1 [Dovitinib] + Cn1nnc2c(C(N)=O)ncn2c1=O [temozolomide] (first compound 0.1 µM, partner dose 2 µM) | 95
8 | CNC(=O)c1cc(Oc2ccc(NC(=O)Nc3ccc(Cl)c(C(F)(F)F)c3)cc2)ccn1 [sorafenib] + O=C(Nc1ccccc1)c1cc([N+](=O)[O-])ccc1Cl [GW9662] (first compound 0.4 µM, partner dose 2 µM) | 97.6
9 | CN1CCN(c2ccc3nc(-c4c(N)c5c(F)cccc5[nH]c4=O)[nH]c3c2)CC1 [Dovitinib] + O=C(O)[C@@H]1[O][Sb](=[O])([O][Sb]2(=[O])[O][C@H]([C@H](O)CO)[C@H](O)[C@H](C(=O)O)[O]2)[O][C@H]([C@H](O)CO)[C@@H]1O [stibogluconate] (first compound 0.1 µM, partner dose 2 µM) | 99.1
10 | CS(=O)(=O)CCNCc1ccc(-c2ccc3ncnc(Nc4ccc(OCc5cccc(F)c5)c(Cl)c4)c3c2)o1 [lapatinib] + CN(C)S(=O)(=O)c1ccc2c(c1)/C(=C/c1cc3c([nH]1)CCCC3)C(=O)N2 [SU6656] (first compound 0.8 µM, partner dose 0.4 µM) | 79.8
11 | C=CCNC1=C2C[C@@H](C)C[C@H](OC)[C@H](O)[C@@H](C)/C=C(\C)[C@H](OC(N)=O)[C@@H](OC)/C=C\C=C(/C)C(=O)NC(=CC1=O)C2=O [Tanespimycin] + CCc1ccc(CCOc2ccc(CC3SC(=O)NC3=O)cc2)nc1 [pioglitazone] (first compound 0.002 µM, partner dose 2 µM) | 91.8
12 | CS(=O)(=O)CCNCc1ccc(-c2ccc3ncnc(Nc4ccc(OCc5cccc(F)c5)c(Cl)c4)c3c2)o1 [lapatinib] + COc1cc2ncnc(Nc3ccc(Oc4ccccc4)cc3)c2cc1OC [SrcI1] (first compound 0.8 µM, partner dose 2 µM) | 101
13 | CNC(=O)c1cc(Oc2ccc(NC(=O)Nc3ccc(Cl)c(C(F)(F)F)c3)cc2)ccn1 [sorafenib] + COc1cc(N2CCC(N3CCN(C)CC3)CC2)ccc1Nc1ncc(Cl)c(Nc2ccccc2S(=O)(=O)C(C)C)n1 [NVP-TAE684] (first compound 0.4 µM, partner dose 0.08 µM) | 94.9
